Test results: PMC12136788
This is one part of the list.

T1: UNK ZnF1-3 (human, UniProt Q9C0B0 31-174)
T1 sequence: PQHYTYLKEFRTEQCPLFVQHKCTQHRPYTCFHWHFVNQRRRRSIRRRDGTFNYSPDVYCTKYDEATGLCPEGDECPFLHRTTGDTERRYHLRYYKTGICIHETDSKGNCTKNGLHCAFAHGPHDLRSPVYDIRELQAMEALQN

B1: chrX:71549762:71549763:+_ENSMUSG00000019087_ENSMUST00000019231|mus_mus|mus_mus_mus_hu_False|68_68 (ssRNA)
RNA: GGGAGUUCUACAGUCCGACGAUCAAACCCGUGUACUUCUUAUUGUUAGCACAACAUCACCAGAAAAAAAACAUAACAGCCAAGCAGGACAGACAGUUAAGUAGUACUUCCACACUCCCAAACUCAGGGAGCCCUAUAACCUUACAACAGAGGAUUGAGCAUCA
B2: chr7:27827042:27827043:+_ENSG00000106052_ENST00000265393|hu_hu|FALSE|FALSE (ssRNA)
RNA: GGGAGUUCUACAGUCCGACGAUCUUUGUUCCCAUCUAAAUUUUUUAAAGUCUGGACCUCUGACAUAAGCUUGGUAUUUUCUAUUUCUGUAUUCUUCAAAUGUACCUUAUAAAGUUCCUUUUCAUCCUUCUCUGUCUUCAACUGCAACAGAGGAUUGAGCAUCA
B3: chr12:493273:493274:-_ENSG00000073614_ENST00000399788|hu_mus|hu_hu_hu_mus_False|88_88 (ssRNA)
RNA: GGGAGUUCUACAGUCCGACGAUCUUUUCUCUCCACCACAGGGAUCUUCAGAGUAGAUCCUUGAAGUUCCCAAAAUUUUGCCAGUUGAUCCAAGAAGUCCAAUCUUACUCUAGUCAUUGCCUCAAGUUCAUUCAGGCGCUGGACCAACAGAGGAUUGAGCAUCA
B4: chr2:135163197:135163198:+_ENSMUSG00000051177_ENSMUST00000110116|mus_hu|FALSE|FALSE (ssRNA)
RNA: GGGAGUUCUACAGUCCGACGAUCGAAGAGCUGAGGCAUAUAGUUGGAUGAAUCCACACGUGUUCCUUUUGGAUAUAUCCUGCUAAGCUGCAUUUUGUUAUAUUCUACAAAUUCCACUGGAGACUUGGUGAGUUGUUCAAGUCCCAACAGAGGAUUGAGCAUCA
B5: chr1:35650007:35650008:-_ENSG00000116560_ENST00000357214|hu_hu|FALSE|FALSE (ssRNA)
RNA: GGGAGUUCUACAGUCCGACGAUCAUCCAUAAAAAGAUAGCUUUCUUACUAAAAUGCAAGAAUUUAAAAGAUUGGUAUCUAAACAAAAAAACAAAACAAACUGGAAUGAAAGCCUAAAUAUCACAUCUAAAAUCGGGGUUUUUUCAACAGAGGAUUGAGCAUCA
B6: chr11:86503612:86503613:+_ENSMUSG00000072582_ENSMUST00000108022|mus_hu|FALSE|FALSE (ssRNA)
RNA: GGGAGUUCUACAGUCCGACGAUCCUGACAGGCUUCAAACACUUGUGAUGGAGGGGUUGUUGUCAUAUCAAAGUCCACCUAGUAAAGUUUUAGGUGACCAGUGACUUUGUCAAUUAGGUCUGCUGGUCCUGGCCCAAUCCCUAGCAACAGAGGAUUGAGCAUCA
B7: chr7:141450121:141450122:+_ENSG00000106028_ENST00000265304|hu_mus|hu_hu_hu_mus_True|1_88 (ssRNA)
RNA: GGGAGUUCUACAGUCCGACGAUCUCAUCCGUUCUAUGCCUUUUCUUUCGUCUGGUCACUCAGAAAUAUAAUGUUAUCAGCUAUGAUUGUUGUUGCUUGCCGCCUCACAUUGUUUUUAUCCAUGUACUCGCCAUAGUCUAUUUUCAACAGAGGAUUGAGCAUCA
B8: chr18:33744517:33744518:+_ENSG00000134759_ENST00000351393|hu_mus|FALSE|FALSE (ssRNA)
RNA: GGGAGUUCUACAGUCCGACGAUCUAAGAACUUGUCAUCAGGUGAGAAUGUCAUCUGUGUGACAGUCAGAGUGUGGAAAGCAAGACUCUGCACUUGUUUCCAAGAUGCCGUGCUCCAAAGAAUGAUAGCUGCGUGCUCCUUCUGCAACAGAGGAUUGAGCAUCA
B9: chr2:42510052:42510053:+_ENSG00000143924_ENST00000318522|hu_mus|FALSE|FALSE (ssRNA)
RNA: GGGAGUUCUACAGUCCGACGAUCACAGUCUGUAUGACCCAGGUAGUGUCGCUGAGUCCUCUCCUCAUAAUUAAACAGGACUACCACUGAGGCGAUAAAAUAAACUAUCUCCCCUGUGGGAAGCAGGUAUACAUUCGCUCUACACAACAGAGGAUUGAGCAUCA
B10: chr8:117878989:117878990:-_ENSG00000164754_ENST00000297338|hu_hu|hu_hu_hu_mus_True|1_48 (ssRNA)
RNA: GGGAGUUCUACAGUCCGACGAUCCCAGAGGCCCUCGUUUACUGAGGACAAAAUGUGCGUAGAACAUUUUUCUUAUUUGCUAUGAAAACAGAAGAAACCUGGAUCUCGGCGGGGAGCCGGGAGGGGUGGGUGGCCCGGGGGAGGCAACAGAGGAUUGAGCAUCA
B11: chr12:6601462:6601463:-_ENSG00000111639_ENST00000229238|hu_mus|FALSE|FALSE (ssRNA)
RNA: GGGAGUUCUACAGUCCGACGAUCCUCUCCUUGCUGGGAUAAGUCCUGUUCCCCUUCUCCAGGGUGACACAUUUCCCGUCCUAUCUGUACUUCCCAUGUCGGUUAAAGUGUUUGUAGAGAUAGCUGAUCCGUUUGUUAAGGUUACAACAGAGGAUUGAGCAUCA
B12: chr14:89307221:89307222:+_ENSG00000165533_ENST00000346301|hu_mus|hu_hu_hu_mus_False|18_18 (ssRNA)
RNA: GGGAGUUCUACAGUCCGACGAUCUCCUGUUUGGUUAGUGCCAGGGAGCUUCAAAGAUGUGCCAGGGCGUGGGACCUGAGCAAUAGCAUUUUCAUCCAGGAUCAUUUCAGCAAUUCCUUCCUGAUCUACAUCAAUUUCAUCUAUCAACAGAGGAUUGAGCAUCA
B13: chr19:12019223:12019224:+_ENSMUSG00000046139_ENSMUST00000061618|mus_mus|FALSE|FALSE (ssRNA)
RNA: GGGAGUUCUACAGUCCGACGAUCUGUGAAGGGAAGGUAGGAAAGGCUCAGUGGAGACAGUCAGUAGAUGGUAGAAGGAAGCUAGGGACUGUCACUGGGGAGCAGCUGGUGGAGCCCGAGGCCACAAAAUGAGAAGAAAUGGAGCAACAGAGGAUUGAGCAUCA
B14: chr3:157717571:157717572:+_ENSMUSG00000063052_ENSMUST00000156597|mus_mus|FALSE|FALSE (ssRNA)
RNA: GGGAGUUCUACAGUCCGACGAUCUCUUGAGUUCCUUUAGCUAUAAUUUCUCUUCGAAUGGUUCUUAGAGGAUUUCCUUCUAGUGCCAGGAAUUUCAAAUGAAGAUUUCCCAAUGAGCAGGGCAGACUACUAAUAUCAUUGUUGCAACAGAGGAUUGAGCAUCA
B15: chr6:160200703:160200704:-_ENSG00000120438_ENST00000392168|hu_mus|FALSE|FALSE (ssRNA)
RNA: GGGAGUUCUACAGUCCGACGAUCGUGAAAAGCUCUUAACUUGGCAACCAGGUCGGUGGAGUCCUGGGCAGCAUUCACUGCCAGUGUAUUAGGAAUCACAAGCAGAGAUCUUGCAAACUCUGCAAUAGCAAGCUGUUCCCGAGACAACAGAGGAUUGAGCAUCA
B16: 23958445_23958565_7413_CDS_ENSMUSG00000039218_ENSMUST00000088621|mouse|control|control (ssRNA)
RNA: GGGAGUUCUACAGUCCGACGAUCUGAUGAAGAGGAGGAGGAGCUAGAUGAUGAUGAAGAGGAGGAAGAGCUCCGACGUUCCUUAGCUGGUUGCAGAGCAGCCAAUGUAGAAGGCUGCUGGGCCCCAGUAGAGGCAGGUGGCUCCAACAGAGGAUUGAGCAUCA
B17: 19451973_19452093_1365_CDS_ENSMUSG00000057551_ENSMUST00000079042|mouse|control|control (ssRNA)
RNA: GGGAGUUCUACAGUCCGACGAUCAUAGUGUCUCUCCUGAGUGUGAAUCUUCCUGUGUGCAGUGAGGUUGGAACUAGCACUGAAGGCUUUGCCGCAGAGAUCACAGCCAUAAGGUCUCUCCCCAGUGUGAGAGUUCAUGUGUGUCAACAGAGGAUUGAGCAUCA
B18: 30947562_30947682_694_CDS_ENSMUSG00000037029_ENSMUST00000062181|mouse|control|control (ssRNA)
RNA: GGGAGUUCUACAGUCCGACGAUCGAGUUUCCCACAUACCUUACAGGCAAAGGGGCUUCCCCCGCUUAAGAUUCUCUGCUGGCUGAGCUGUGACAUCUGAGUGGAAGAGUGAUCUCAUUCACAGCGCUUCUCUGCAAUAGGGAACAACAGAGGAUUGAGCAUCA
B19: chrX:132781199:132781200:+_ENSMUSG00000042712_ENSMUST00000048687|mus_mus|FALSE|FALSE (ssRNA)
RNA: GGGAGUUCUACAGUCCGACGAUCAUGAAAAGAAAGCUAGAUCGCAAUGGUAACAUCAGAUAAAAGGGAAAGCAAGCCAAGCUACAUUAAAUAGGGGUAAGGAUGGCUUCGGUUAGCCUUCCAACGCGUCACUAUAAGUUUGUUCAACAGAGGAUUGAGCAUCA
B20: chr18:47008509:47008510:-_ENSG00000177576_ENST00000318240|hu_hu|FALSE|FALSE (ssRNA)
RNA: GGGAGUUCUACAGUCCGACGAUCCUGGCACAAACCUUCUAUUUAAUCAUAUUAUUCAAACAGCAAUAACAGAAAUGAAAGCUACAUUAACGAAAAAGGAACUUAGGAAUGAGGUCAUUAAAUAUAACUAACUACAUUUUAAAUCAACAGAGGAUUGAGCAUCA
B21: chrX:140365796:140365797:-_ENSMUSG00000031285_ENSMUST00000033642|mus_mus|mus_mus_mus_hu_False|1_18 (ssRNA)
RNA: GGGAGUUCUACAGUCCGACGAUCCUUCUCAUUACUCAGUGCCUGCAAGGUUCUGGUUCGGUAGAAGCUACAGUGGGCGCUGUGAGUGGGGCUAGGCAACCCAUUCAUCCGGGAGCCUCUCAUAUUUCUGGAUGUCUUGUCUCGCAACAGAGGAUUGAGCAUCA
B22: chr8:86505109:86505110:+_ENSMUSG00000005469_ENSMUST00000005606|mus_hu|FALSE|FALSE (ssRNA)
RNA: GGGAGUUCUACAGUCCGACGAUCCUUGUGUUUCACCAGCAUCACCCGCCCGAAGGAGCCCGUGCCGAGGGUCUUGAUUCGUUCAAACUGAUCCAAGUGGGCUGUGUUCUGAGCGGGACUUUCCCAUUUUUUAAGAAAAUCUUCCAACAGAGGAUUGAGCAUCA

These binders were tested against T1, UNK ZnF1-3 (assay: nsRBNS (natural sequence RNA bind-n-seq); RBNS binding buffer (assumed for nsRBNS): 25 mM Tris pH 7.5, 150 mM KCl, 3 mM MgCl2, 0.01% Triton X-100, 500 ug/ml BSA, 20 U/ml SUPERase-In, 4 C; UNK is unkempt and MSI1 is Musashi-1; names of the RNAs are library labels; protein concentration not given here; high values mean tight binding).

Binder | binding signal [enrichment R]
B1 | 1.83
B2 | 0.518
B3 | 1.01
B4 | 0.929
B5 | 2.74
B6 | 0.598
B7 | 0.418
B8 | 0.797
B9 | 1.17
B10 | 1.69
B11 | 0.639
B12 | 0.826
B13 | 2.02
B14 | 0.953
B15 | 0.939
B16 | 1.95
B17 | 0.813
B18 | 0.877
B19 | 1.25
B20 | 1.44
B21 | 0.698
B22 | 0.625
